# Test results from the supplement of paper PMC6531468.
# The list shows a part of the results. Values come from read counts of a selection and are noisy. Scores sum up all selected molecules that hold the word; the word was not tested alone.
# System: IMP3 RRM1-2
# Assay: 6-mer SELEX enrichment z-score vs GST control; IMP3 is the RNA-binding protein IGF2BP3; higher = more enriched by binding
# Conditions: construct: RRM1-2 (1-163); SELEX round: R2
# Procedure: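 SELEX-seq with GST-tagged IMP3 RRM1-2 (Met1-Asn163) and an N40 RNA pool, round 2. 6-mer enrichment z-score normalised to GST SELEX. RNA written as DNA (T = U).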
# Chain of IMP3 RRM1-2 (chain, as listed by the source): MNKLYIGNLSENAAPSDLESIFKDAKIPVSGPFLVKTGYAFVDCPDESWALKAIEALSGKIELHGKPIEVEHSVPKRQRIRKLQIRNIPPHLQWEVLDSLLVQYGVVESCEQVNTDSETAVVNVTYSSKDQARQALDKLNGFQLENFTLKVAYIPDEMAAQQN
row,Sequence,6-mer SELEX enrichment z-score
1,TTGTCC,0.071
2,GCACCT,-0.007
3,TCATTT,1.22
4,TTGATT,0.138
5,TGCGAA,-0.509
6,GTCCTG,-0.07
7,TTTTCC,0.099
8,CCCGCC,-0.53
9,CCCCGC,-0.422
10,TCTAGG,0.312
11,ATTAGC,0.179
12,GTCAGA,0.03
13,GTATGA,-0.325
14,GGCTGC,0.297
15,TGCGTG,0.11
16,TCTCGT,0.611
17,CACGTA,0.036
18,TTGGGT,0.629
19,CAACCA,2.94
20,AATGTT,-0.299

row,Sequence,6-mer SELEX enrichment z-score
1,CCTCTT,0.281
2,GTTGGT,0.547
3,CAGGGG,0.236
4,CGCCGA,-0.709
5,CCTTGG,0.19
6,AAATCG,-1.1
7,GCGGTT,0.353
8,GCTCAG,0.296
9,ATCGTG,-0.031
10,ATGCAC,0.453
11,TTCCGT,0.171
12,ATAATA,-0.306
13,CTTCTC,0.424
14,GCGTTC,0.417
15,AGGACT,-0.415
16,ATCGGG,0.05
17,CTTCGC,0.219
18,TCTCGC,0.474
19,CAAAAC,-0.182
20,AGTAGA,-0.249
